Assay results taken from the supplement of paper PMC3334620.
The full ranking holds about 33,000 sequences; the median of “E-score (-0.5 to 0.5)” is about -0.012, and the highest 2% start at about 0.27. The list shows a part of the results.

Each sequence was assayed against T1, Vhr1 (UniProt P40522) (assay: PBM E-score (8-mer binding enrichment) (E-score (-0.5 to 0.5)); higher = stronger / more preferred TF binding; most listed sequences are background and not binding sites). Conditions: protein concentration: 200 nM; construct: GST-full length.
T1 sequence: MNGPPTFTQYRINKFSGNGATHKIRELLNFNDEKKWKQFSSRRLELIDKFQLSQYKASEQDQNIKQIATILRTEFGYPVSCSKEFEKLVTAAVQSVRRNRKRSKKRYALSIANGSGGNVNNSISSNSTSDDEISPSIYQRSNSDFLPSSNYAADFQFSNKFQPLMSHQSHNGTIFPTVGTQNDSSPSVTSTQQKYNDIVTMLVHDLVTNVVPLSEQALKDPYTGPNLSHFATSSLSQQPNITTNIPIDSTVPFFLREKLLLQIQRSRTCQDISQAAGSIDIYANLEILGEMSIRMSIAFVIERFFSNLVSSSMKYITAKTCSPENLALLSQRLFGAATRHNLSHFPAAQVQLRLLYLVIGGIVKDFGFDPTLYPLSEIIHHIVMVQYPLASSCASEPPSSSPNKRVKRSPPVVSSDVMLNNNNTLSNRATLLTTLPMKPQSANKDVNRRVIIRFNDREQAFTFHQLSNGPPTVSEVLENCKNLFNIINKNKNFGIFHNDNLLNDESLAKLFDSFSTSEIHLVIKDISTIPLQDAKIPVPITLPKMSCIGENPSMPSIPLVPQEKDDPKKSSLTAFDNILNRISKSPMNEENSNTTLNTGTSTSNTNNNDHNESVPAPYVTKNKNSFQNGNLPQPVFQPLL
Method in brief: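 Yeast transcription factors carrying a GST tag, as full-length proteins or DNA-binding domains, were produced by PURExpress in vitro transcription/translation. About 100-200 nM protein was applied to universal all-10-mer Agilent arrays, double-stranded by primer extension on fresh or once-stripped slides. Bound protein was detected with fluorescent anti-GST, and scans were normalised with masliner. The Universal PBM Analysis Suite gave each ungapped eight-base word, pooled with its reverse complement, an E-score, a modified Wilcoxon-Mann-Whitney statistic.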

Sequence | PBM E-score
CCTGTAAC | -0.0611
AAATCATC | 0.245
AGGAATAC | -0.0219
TGGGGCAA | -0.186
CGGGTATC | 0.0167
GCGGTCGA | 0.0586
ATACACAG | 0.257
GGGTTATA | 0.097
CATAAAGC | -0.0901
CGCCAGAA | -0.00746
CATTCCAA | -0.0871
TTAGGAAA | -0.229
CTAGAAGA | -0.122
AAGCTCCA | 0.111
ACCGGCCC | -0.0319
GATCCGGA | -0.214
ATAGCATC | 0.118
AATTTCGC | -0.0528
ATACGGCG | 0.0899
ATATTTAG | -0.00388
CCCTTGCA | -0.174
GGAGACGA | 0.108
CATACGCG | 0.0571
GCCATGAA | 0.0605
ATGCGGCC | -0.0127

Sequence | PBM E-score
GTCAGACA | 0.0656
AATTGCTG | 0.0603
ATACCAAC | 0.23
ACACGGCT | -0.0581
GATCGTTA | 0.0319
CCAGGCGA | 0.0158
ATCAGCTG | 0.0408
CTTCCGAA | -0.121
TCCTAAAA | -0.177
CACCAGAA | -0.0944
AGGACACA | 0.204
GATGACGA | 0.1
CGGCCACC | -0.00678
TAACCCCA | -0.131
GCATCGAC | -0.0201
CCAATGAC | 0.285
AATTCTAT | -0.0391
CCTTTGCG | -0.0296
ACTGAATC | 0.203
GAGTCGTA | 0.405
GGCCCGTA | -0.291
GTTGTGTA | 0.148
AGCCCTGA | -0.138
AGGAATCA | 0.28
AGTACTGC | 0.0238

Sequence | PBM E-score
ATGTGCTG | 0.261
GTCTGTGA | 0.235
CCAATCAC | 0.179
TCTAACAA | -0.145
TCCCGGCA | -0.158
CTTGTATA | 0.0979
CCACCCCC | -0.0519
CAAGAAAG | -0.0372
AGGAACCA | -0.0489
CCGTACGA | 0.08
CCGGCCGC | -0.048
CCCACGTA | 0.094
AGTCATGC | 0.443
GAAAATCA | -0.0196
CAGGACAA | -0.0306
ACAGTGTC | 0.108
TGTCAAAA | -0.0057
AATTGTAT | 0.0681
ATTTTGGA | -0.134
CACTTCCC | -0.0861
AAAAAAGG | -0.151
CTCTAGGA | -0.319
CTGAAATC | -0.0316
CTTCACCA | -0.156
ACACTCAG | -0.0414

Sequence | PBM E-score
AGGAAATA | -0.04
ACGAATCT | -0.0246
GCCACAAA | 0.0209
CAGACCGA | 0.142
CTTGATCA | 0.0768
CGATTCAA | -0.0806
ATCCGGGA | -0.189
GCTCTGAA | -0.163
ATAGTCAC | 0.41
AGTGTCCG | -0.11
AGGATATC | 0.0193
AAGGTCCC | -0.111
ACGGTAAC | 0.0764
ACCAGGTC | -0.106
AGACGAAC | 0.0617
CTCTACAC | 0.00089
ATCACACC | 0.288
CATGTGGA | 0.123
GGGCTCAC | 0.0948
AGGGTAAC | 0.0439
CGATGAGA | -0.0475
ATTAAATA | 0.00492
ATACAGGC | -0.0617
CCTGCAAC | -0.103
ATTATCAG | -0.0402

Sequence | PBM E-score
AGATGTAC | -0.107
ACCAAGGC | -0.238
CAAACCGG | 0.00117
CGCAAACG | -0.143
CGGCGCTA | -0.0911
GCAGATGA | 0.0933
CCTATGTA | -0.0448
AGCAGGTA | -0.0119
GTATAGAC | 0.145
AATTACTA | -0.156
CATATTAC | 0.225
CTCCTCCC | -0.164
AATTGCTA | -0.188
ACCCCCGT | -0.164
CCTTACGC | -0.0785
ATGAGTCG | 0.462
GACAGCTA | -0.285
ATTCTGGG | -0.107
CCCGCGGA | -0.0501
AAACCAAG | -0.0778
CATACTCC | 0.125
AGTTGCTG | 0.0513
AAGATACG | -0.123
CGCATAAG | -0.0754
GCTGAAAC | -0.00506

Sequence | PBM E-score
AATGCTGG | -0.00919
AGACTCGC | 0.136
ACGGGGCA | -0.168
ATGCACAG | 0.123
AAAACAGG | -0.232
CAGTCAAC | 0.216
CAGTTTTC | -0.0401
AGCCTGAG | 0.0464
AATGTCAA | -0.169
AGACAACC | 0.095
GGTCGGAA | -0.00317
AGGACGTA | -0.248
ACAGGTTC | -0.0185
AAGTAGGA | -0.117
CGATACCG | 0.0455
CCCATCGA | 0.252
GTAAGTGA | 0.0868
CGATATGA | 0.125
ACTTGCTA | 0.126
CATTAAGA | -0.357
ACATAAAG | -0.0861
AGCAGCCC | 0.189
GGGCTCTA | -0.0249
TATGCAGA | 0.0775
GACCAGTA | -0.0444

Sequence | PBM E-score
CCAACTTC | -0.0147
ACCCCCAG | -0.0907
GTGAATTA | 0.139
GCTTCCGA | -0.121
CTCTGTAA | -0.126
ATATGGTG | 0.214
CGTTGAAC | -0.185
GGGTGGTA | 0.044
AGCGATAA | -0.0952
ACAGGCCT | -0.178
CGTAACAC | 0.156
CTTAGAGC | -0.0903
AGCTTCCA | -0.0631
ACAGAGGT | -0.0725
CGTGCTAC | -0.093
ACCTGGTC | -0.0526
CGTTGTTC | -0.114
CAAGTAAA | -0.173
CTGGTAGA | 0.0523
CCACACGC | 0.228
GACCACGC | 0.148
TCTCGCCA | 0.0221
